# Source: paper PMC12136788
# Some of the results follow.
# T1: UNK ZnF1-3 (human, UniProt Q9C0B0 31-174)
# T1 sequence: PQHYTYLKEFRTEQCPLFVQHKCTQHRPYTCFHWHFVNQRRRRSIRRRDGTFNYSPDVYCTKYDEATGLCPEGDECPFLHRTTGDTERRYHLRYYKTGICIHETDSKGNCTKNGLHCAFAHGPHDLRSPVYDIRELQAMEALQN
# B1: chr15:44267162:44267163:+_ENSMUSG00000022338_ENSMUST00000060652|mus_mus|FALSE|FALSE (ssRNA)
# RNA: GGGAGUUCUACAGUCCGACGAUCCUGAGCAAGGAAUGUUCUUAUUCUCUGUAGGAGCUCCUUCUUUACACUGUCAGGUACCAGGGCUCUGCCUUUUGGAGUGAUUUCAGCCACCAAGUCAUCAACAGUAACGUGUUCUAGUCCCAACAGAGGAUUGAGCAUCA
# B2: chr2:32086683:32086684:+_ENSMUSG00000039262_ENSMUST00000036691|mus_mus|motif|central (ssRNA)
# RNA: GGGAGUUCUACAGUCCGACGAUCUGACCACUGGGGACAGCAGAGCAGAGAGAGGACAGCGAGGACCAUAUAAAAGUUCAGCGGUACAGAUGUAGCUAGCAUUUUGUUCUCAUUUCCCCUUUGUAAAAACCUUAGCUGCUUUUUCAACAGAGGAUUGAGCAUCA
# B3: chr2:44428564:44428565:+_ENSG00000138032_ENST00000378551|hu_hu|FALSE|FALSE (ssRNA)
# RNA: GGGAGUUCUACAGUCCGACGAUCAAGAGCAGAUCCUGAUUUUCCAGCUGCCCUAAAGUCUUCGUUAGUAGUGAUGUGUUCUAAUAAAUGUGUUGAGCAGUAAUUUGCCACUCGGGAUCCAGCAUGACCAUCAUAAACUGCAAACAACAGAGGAUUGAGCAUCA
# B4: 66455519_66455728_6417_CDS_ENSG00000173898_ENST00000309996|human|control|control (ssRNA)
# RNA: GGGAGUUCUACAGUCCGACGAUCUUGUGUGGAUGGUGGUGGCCGUGGCUGGGUUCCGUCCCAGGUGGUGUCAGAAGCUGUCUGGCCGCCCACCAGGUCCCCUGGAGGCACACUGGCUGUGGGUUCGGGAGCAGGCGGCUGUUUCAACAGAGGAUUGAGCAUCA
# B5: chr22:42033747:42033748:+_ENSG00000196419_ENST00000405878|hu_hu|FALSE|FALSE (ssRNA)
# RNA: GGGAGUUCUACAGUCCGACGAUCCAGGUCUUCUAGCUUGCUGGAUUCCUCAAAGUGAACCCUGAGGUCCUCAUCCUCUGCUAUGCUGAUGAUAUCUCUGUAGAACAAGGAUAUGUCAAAGCCCCCAGGUUUCUUCAGGUGCAUCAACAGAGGAUUGAGCAUCA
# B6: chr14:15598107:15598108:+_ENSMUSG00000021733_ENSMUST00000057015|perfect_dup|motif|central (ssRNA)
# RNA: GGGAGUUCUACAGUCCGACGAUCUUGCCCAGCAAACAAUGAAUAGGCAAUCCCAGUUAAUGAUGCUCCAAAAAGAGACUCGGUUGCACUUAUUCUGCCUUCUGUAGCUUCUCCAAGCAGCCCUCCAAAAGUGAUUACAGGAGACAACAGAGGAUUGAGCAUCA
# B7: chr11:87793471:87793472:-_ENSMUSG00000020483_ENSMUST00000020775|mus_mus|mus_mus_mus_hu_False|58_68 (ssRNA)
# RNA: GGGAGUUCUACAGUCCGACGAUCUGGACUUGAAAAUAAAAGAAUAAGCUGGAUCCCCCACCCCCCCACAGUGUCAACCCUAUGCGAGAGUUUUGAAGGCGACUCAUGAAAAUCAGCAGCUCAAACGGCAAUGACCACCCCACCCAACAGAGGAUUGAGCAUCA
# B8: chr8:34730120:34730121:+_ENSMUSG00000009630_ENSMUST00000009774|mus_hu|FALSE|FALSE (ssRNA)
# RNA: GGGAGUUCUACAGUCCGACGAUCUAAAACAGUAAUUUAGUUUAAAUGAAGGGAAAUCUCUUUAAAUGUUAUGACAACAUACUCCCAAGAAGAACCUUUUCUUCAGUUAAGUUAAUUAUACAUUUCAAUAAAAUAAAGGAUAAUCAACAGAGGAUUGAGCAUCA
# B9: chr5:43295983:43295984:-_ENSG00000112972_ENST00000433297|hu_hu|motif|central (ssRNA)
# RNA: GGGAGUUCUACAGUCCGACGAUCGAUACUAUUUUUAUCUCUAUUCUGGUCAUUAAGGAAGUCAUUCAGCAACAUCCGAGCGGGAGAUUUCUGAACCAGUUUACAAUAUGGUGAGUGAAAGAUCAUGAAGCCAAAAUCAUUCAACAACAGAGGAUUGAGCAUCA
# B10: chr10:20037848:20037849:+_ENSMUSG00000037608_ENSMUST00000043881|mus_mus|motif|central (ssRNA)
# RNA: GGGAGUUCUACAGUCCGACGAUCUCAGUGAUGUCUUUGAGACACUACCAAGAUUCUUCUUGUAGAAAAUGUUAUGGGAAACGGAACUCUAAAUUCAAAUACCUGACACGCCGAAGCACGAUGUGCGUGCAGGGUUUACCUCCGCAACAGAGGAUUGAGCAUCA
# B11: chr14:76904430:76904431:+_ENSMUSG00000022010_ENSMUST00000022587|mus_mus|mus_mus_mus_hu_True|68_88 (ssRNA)
# RNA: GGGAGUUCUACAGUCCGACGAUCUGCAGCCAAAAACACCCUCGUGGCGGGAGGGAGGGAACACCAGCAGCCUGGUUUAAGCUAGAUAAAAUCUUCUGGCUUUCCGCAGCCCAGGGAGAAACAGAAAACGGCAGCCCUAAUUUACAACAGAGGAUUGAGCAUCA
# B12: chr17:72008250:72008251:+_ENSMUSG00000041057_ENSMUST00000047086|mus_hu|FALSE|FALSE (ssRNA)
# RNA: GGGAGUUCUACAGUCCGACGAUCCAGCUCCAUUUAUAGACAAAUAUAACUGUACAUUACACCAGCAGCUGGUUCAAACUUGCUUUCCCAAGAUGCUUAUAUGGCUCUGGCUCUUAAGAUGAGCACACAAAUCUCUGUUCUGUCCAACAGAGGAUUGAGCAUCA
# B13: 30389837_30391868_596_CDS_ENSMUSG00000029775_ENSMUST00000068259|mouse|control|control (ssRNA)
# RNA: GGGAGUUCUACAGUCCGACGAUCCACAUUGCAGACAUGGACGUCAUUGCCGUUGCUCUCACCAAACGGGAUGCCUGUACCUCCGAACACUAACAGGUUGUUUCCAUGCAGCACAAGUGACAUUGAUGCCAAUUCCCGGGGCAUCAACAGAGGAUUGAGCAUCA
# B14: chr2:179515052:179515053:+_ENSMUSG00000000305_ENSMUST00000000314|mus_hu|mus_mus_mus_hu_False|38_68 (ssRNA)
# RNA: GGGAGUUCUACAGUCCGACGAUCGCUGUCCCAUGCAGUCACCGUGAACGCCACCUGCUCGGAGGGGAUCUUCAACUCCCGGGUGGCGAAGACUGUCCCAUCCGCCCCAACUUUGAAGUCCAUGCUGUUGGUCUCAUAUUGUGUCAACAGAGGAUUGAGCAUCA
# B15: 74647320_74650340_1477_3pUTR_ENSG00000113161_ENST00000287936|human|control|control (ssRNA)
# RNA: GGGAGUUCUACAGUCCGACGAUCAUUUUGCACCUUUCUCUGCAUUCCCAAGUAUCUGUAGACAUUCUUCAUUAGGCCGAGGUUCCCUGGGAAGUUCAAUUUCAGGUUCCUGUGUCACCAGUACUGAUGAAGUAUCGAGUAAGGCAACAGAGGAUUGAGCAUCA
# B16: 31999977_32000268_785_CDS_ENSMUSG00000021910_ENSMUST00000168206|mouse|control|control (ssRNA)
# RNA: GGGAGUUCUACAGUCCGACGAUCCUUGGUCCGGUAGUCAGGGAUGAUGCUCAAAGGGUUGUUCAGCAAGGUCAAACGCUCCAGACAUGGCAGGCUGCCAAUGCUCUUGACCUCAUCCAACUGCUCAAUCCGGUUGUCUCGUAGCAACAGAGGAUUGAGCAUCA
# B17: chr16:17484321:17484322:+_ENSMUSG00000006134_ENSMUST00000006293|mus_mus|FALSE|FALSE (ssRNA)
# RNA: GGGAGUUCUACAGUCCGACGAUCCAGACUUGAGGAGUUCGGGACAGAAUUGUCUGGAGUUUUACUUCCUCUGUCGUCCAAAGAAAACUGAGUUGGUGGCAAAACCACUGUUCUGUGGACCAGCAAAGCGAGACCUUGCCAAGCCAACAGAGGAUUGAGCAUCA
# B18: 6701587_6701707_3041_CDS_ENSG00000111642_ENST00000544040|human|control|control (ssRNA)
# RNA: GGGAGUUCUACAGUCCGACGAUCAAUUAGUUCUGUCUUGGAGGGCAUGUUCUUGAACACAUCGGCUUUGAGCCGCCGCAACAUGUGCGGCCCCAGCAUGUCAUGCAGUUUUUUUAUCUGGUCCUCCUUGGCAAUGUCAGCAAACAACAGAGGAUUGAGCAUCA
# B19: chr5:128440902:128440903:+_ENSG00000066583_ENST00000173527|hu_mus|hu_hu_hu_mus_True|18_68 (ssRNA)
# RNA: GGGAGUUCUACAGUCCGACGAUCUUGAACGGUGCUGCCAAGUCCUUUGGGGUAUUGUUCCGUUAUGAUAACAGGAAUCCCUAAGAUCCGAGCUCCUUGCAACAGUCUCUGUCCCACGCUAAUAAUAUCCCCAAAGUAUUUGAUCAACAGAGGAUUGAGCAUCA
# B20: chr13:120183613:120183614:-_ENSMUSG00000025453_ENSMUST00000099149|mus_mus|FALSE|FALSE (ssRNA)
# RNA: GGGAGUUCUACAGUCCGACGAUCGUAGAUGAAGCUAAUUAGAGUUCCUGAUGGCUUUAAAAAGUCAGCUUCGUGAGCGCCUAACGUCGGGUUCACCAUGGGGGCCCUCACUUUGACCACCAGAUCAGAAGCCAGAACUUCCUUCAACAGAGGAUUGAGCAUCA
# B21: chr4:19447016:19447017:-_ENSMUSG00000028228_ENSMUST00000029885|mus_mus|FALSE|FALSE (ssRNA)
# RNA: GGGAGUUCUACAGUCCGACGAUCUUUAUAAAAUGAUAAUCUAGAAGUUGGAAAUGCUUUUAUUUCAAAUUGCAGAAAACUAUGAAUUACUUUAAUUUGCCAGAAUCACAGCUCCUAUGAAUGGCAUUUAUAAAACUUGAUCAACAACAGAGGAUUGAGCAUCA
# B22: chr10:33214929:33214930:-_ENSG00000150093_ENST00000302278|hu_hu|hu_hu_hu_mus_True|98_108 (ssRNA)
# RNA: GGGAGUUCUACAGUCCGACGAUCAACAAGUUCAUUAAAUACUUCUCCUCUGUCAGUAAGACUAAGCACAUUUUUGUAGCUAAAUGGGCUGGUGCAGUUUUGUUCACUUGUACAAGGAUUUCUUAGCUUUGCUGGGGUUGUGCUCAACAGAGGAUUGAGCAUCA
# Biological target: T1, UNK ZnF1-3
# Assay: nsRBNS (natural sequence RNA bind-n-seq); RBNS binding buffer (assumed for nsRBNS): 25 mM Tris pH 7.5, 150 mM KCl, 3 mM MgCl2, 0.01% Triton X-100, 500 ug/ml BSA, 20 U/ml SUPERase-In, 4 C; UNK is unkempt and MSI1 is Musashi-1; names of the RNAs are library labels; protein concentration not given here; high values mean tight binding
row,Binder,binding signal
1,B1,1.16 enrichment R
2,B2,1.23 enrichment R
3,B3,1.28 enrichment R
4,B4,0.655 enrichment R
5,B5,0.661 enrichment R
6,B6,1.31 enrichment R
7,B7,2.02 enrichment R
8,B8,0.849 enrichment R
9,B9,1.14 enrichment R
10,B10,0.616 enrichment R
11,B11,2.06 enrichment R
12,B12,1.5 enrichment R
13,B13,1.01 enrichment R
14,B14,0.738 enrichment R
15,B15,0.692 enrichment R
16,B16,1.16 enrichment R
17,B17,1.11 enrichment R
18,B18,0.469 enrichment R
19,B19,0.807 enrichment R
20,B20,0.736 enrichment R
21,B21,0.926 enrichment R
22,B22,0.769 enrichment R
